“And” between values parts separate entries of the source, which are not always exact repeats. Identical values can stand only once. Out of some 290,000 compounds screened, about 2,100 (0.72%) were called active. Inconclusive means that the source gave no clear call. Such entries were picked first, then a sample of the others. Calls follow the shape of the dose curve; as a rule, active = well fitted inhibition curve with a large enough effect; inconclusive = small, poorly fitted or top-dose-only effect, or effect the other way; inactive = flat fitted curve, though single readings scatter. A potency beside an inconclusive call is a rough fit, not a confirmed value.
Each molecule was assayed against Fructose-bisphosphate aldolase (Giardia intestinalis (strain ATCC 50803 / WB clone C6)) (UniProt A8B2U2) (assay: qHTS Assay for Inhibitors of Fructose-1,6-bisphosphate Aldolase from Giardia Lamblia). Conditions: purified Giardia FBPA; activity, negative = inhibition: at 59.6 µM (top of the series) unless noted.
Chain of UniProt A8B2U2 (A8B2U2 whole entry, looked up): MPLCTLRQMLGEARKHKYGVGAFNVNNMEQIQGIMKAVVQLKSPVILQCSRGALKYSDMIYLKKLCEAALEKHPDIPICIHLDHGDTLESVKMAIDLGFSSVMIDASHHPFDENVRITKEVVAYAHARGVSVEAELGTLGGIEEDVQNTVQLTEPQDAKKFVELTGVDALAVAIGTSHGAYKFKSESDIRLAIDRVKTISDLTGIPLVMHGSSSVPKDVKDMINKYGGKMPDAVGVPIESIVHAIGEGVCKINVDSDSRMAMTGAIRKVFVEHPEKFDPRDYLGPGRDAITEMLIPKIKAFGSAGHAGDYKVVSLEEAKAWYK
How it was run: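 Giardia FBPA (40 nM reagent) was preincubated 10 min at RT with compound (up to 57.5 uM final), then substrate plus GAPDH/TPI/NAD/arsenate coupling system with diaphorase/resazurin was added; resorufin fluorescence (525/598 nm) was read after 20 min.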
In the case of `CCCCc1nc2c(c3c1C[C@H](C)OC3)CN(S(=O)(=O)c1ccc(NC(C)=O)cc1)CC2`, the activity, negative = inhibition is reported as inactive: 5.19% [at 12.9 µM]. `N#CC1=C(C2CC2)CC(c2ccccc2)C(C#N)=C1N` (centres undefined) was tested, and the Potency was inconclusive: 35.5 µM [inhibitor, single point]. In the case of `Oc1c(Cl)cc(Cl)cc1/C=N/c1nccs1`, the Potency is reported as inconclusive: 19.9 µM [inhibitor, partial curve]. In the case of `CCOc1ccc(C(=O)Nc2ccc(CN3CCOCC3)cc2)cc1Br`, the Potency is reported as “inactive”. In the case of `NC(=S)c1ccc[n+]([C@@H]2O[C@@H](COP(=O)([O-])OP(=O)(O)OC[C@H]3O[C@@H](n4cnc5c(N)ncnc54)[C@H](OP(=O)(O)O)[C@H]3O)C(O)C2O)c1` (some centres undefined), the Potency is reported as “inactive”. `COc1cc(C2C(C#N)=C(N)N(c3cccnc3)C3=C2C(=O)CC(C)(C)C3)ccc1O` (centres undefined) was tested, and the Potency was inconclusive: 6.29 µM [inhibitor, full curve, poor fit]. `CC(=O)Cc1cc(O)c2ccccc2c1OC(=O)c1ccccc1` was tested, and the Potency was inconclusive: 17.7 µM [inhibitor, single point]. `Nc1nccc(-c2c(-c3ccc(F)cc3)ncn2C2CCNCC2)n1` was tested, and the Potency was inconclusive: 15.8 µM [inhibitor, single point]. In the case of `CCN1CCN(Cc2cccc(Oc3ccccc3)c2)CC1`, the Potency is reported as inconclusive: 22.3 µM [inhibitor, partial curve]. `CCCCn1c(SCC(=O)c2ccc3c(c2)NC(=O)CO3)nc2cc(S(N)(=O)=O)ccc21` was tested, and the Potency was inconclusive: 19.9 µM [inhibitor, partial curve]. `Cc1ccc(NC(=O)c2ccccc2-c2ccccc2C(=O)O)cc1C` was tested, and the Potency was inconclusive: 22.3 µM [activator, partial curve]. With `CCOC(=O)CSC(=S)NC(=O)c1ccc(OC)cc1` the Potency was inconclusive: 35.4 µM [inhibitor, single point]. For `N#CCSc1nc2ccc(N3CCOCC3)cc2c(=O)n1CCc1ccccc1`, the Potency was inconclusive: 5.61 µM [inhibitor, full curve]. In the case of `CCOC(=O)C1=C(O)/C(=C/N(C)C)N=C1C`, the Potency is reported as inconclusive: 12.6 µM [inhibitor, partial curve]. In the case of `CSCC[C@H](NC(=O)OC(C)(C)C)C(=O)N/N=C/c1cccc2cccnc12`, the Potency is reported as inconclusive: 25.1 µM [inhibitor, single point]. In the case of `CC1CCCN(S(=O)(=O)c2ccc(C(=O)Nc3nnc(-c4ccccn4)o3)cc2)C1` (centres undefined), the Potency is reported as active: 17.7 µM. `COc1ccc(C(=O)Nc2ccc(NC(=O)C3CC3)cn2)cc1` was tested, and the Potency was inconclusive: 28.2 µM [inhibitor, single point]. For `N#Cc1c(NC(=O)C(=O)NCCCN2CCOCC2)sc2c1CCCC2`, the Potency was inconclusive: 20 µM [inhibitor, single point]. For `N#Cc1ccc(CN2CCC3(CC2)CCN(C(=O)c2cc(C(F)(F)F)cc(C(F)(F)F)c2)CC3)cc1`, the Potency was “inactive”. With `O=C(NCSc1ccncn1)c1ccccc1` the Potency was active: 15.8 µM. With `O=C(NCC1CCCO1)c1csc2c1CCCC2` (centres undefined) the Potency was “inactive”. `CCN(CC)C(=O)c1cc([N+](=O)[O-])cc2c1-c1ccc([N+](=O)[O-])cc1C2=C(C#N)C#N` was tested, and the Potency was active: 7.06 µM. With `CCN(CC)S(=O)(=O)c1ccc(N/N=C/c2ccc(O)cc2O)nc1` the Potency was inconclusive: 6.31 µM [activator, single point]. In the case of `COCOc1cc(OC)ccc1C(=O)/C=C\c1ccc2c(c1)OCO2`, the activity, negative = inhibition is reported as inactive: -10.5% [at 12.9 µM]. `COc1ccc(NC(=O)Nc2cc(C)ccc2F)cc1` was tested, and the Potency was “inactive”. For `NC(=O)CCC(=O)N1CCCC(C(=O)c2ccc(C(F)(F)F)cc2)C1` (centres undefined), the Potency was “inactive”. For `Cc1nonc1C(=O)N/N=C/c1ccc(O)c(O)c1`, the Potency was inconclusive: 4.46 µM [inhibitor, full curve]. With `Cc1ccc(CN2CCSCC2)c(C)c1` the Potency was inconclusive: 17.7 µM [inhibitor, single point]. `COc1ccc(-c2csc(NNC3=NCCCCC3)n2)cc1` was tested, and the Potency was inconclusive: 17.7 µM [inhibitor, partial curve]. `CCC(OC(=O)CN1C(=O)C(=O)c2ccccc21)C(=O)Nc1ccccc1OC` (centres undefined) was tested, and the Potency was “inactive”. For `CN1CCC2(CC1)C(C#N)=C(N)NC(S)=C2C#N`, the Potency was inconclusive: 12.6 µM [inhibitor, partial curve] and inconclusive: 17.7 µM [inhibitor, partial curve]. With `O=[N+]([O-])c1cccc(CN2CCN(c3ncccn3)CC2)c1` the Potency was inconclusive: 20 µM [inhibitor, partial curve]. With `Cc1cc(C(=O)CSc2nc3ccccc3[nH]2)c(C)n1C` the Potency was inconclusive: 15.8 µM [inhibitor, single point]. For `O=C(CSc1ccc(Cl)cc1)N/N=C/c1cccnc1`, the Potency was inconclusive: 17.7 µM [inhibitor, partial curve]. In the case of `CCC1(C)CC(CCNS(=O)(=O)c2ccc(C)cc2)(c2ccc(C)cc2)CCO1` (centres undefined), the Potency is reported as “inactive”. For `Cc1ccoc1C(=O)NCCCNC(=O)c1occc1C`, the Potency was inconclusive: 14.1 µM [inhibitor, partial curve, poor fit]. In the case of `O=C(OCC(=O)N1CCCC1)c1ccccc1OCc1ccccc1`, the Potency is reported as “inactive”. With `NC(=S)Nc1ncc(C(F)(F)F)cc1Cl` the Potency was inconclusive: 17.7 µM [inhibitor, partial curve]. In the case of `COc1cc(CN(C)C(C)C(=O)Nc2ccc([N+](=O)[O-])cc2Cl)ccc1OC(F)F` (centres undefined), the Potency is reported as “inactive”. In the case of `CC(NCCc1ccc(S(N)(=O)=O)cc1)C(=O)NCCc1ccc(F)cc1` (centres undefined), the Potency is reported as inconclusive: 17.8 µM [inhibitor, partial curve]. `CCC(=O)NC1(C(F)(F)F)C(=O)Nc2c1c(=O)n(C)c(=O)n2C` (centres undefined) was tested, and the Potency was inconclusive: 31.5 µM [inhibitor, single point]. For `Cc1c(C(=O)c2ccc(F)cc2F)c2ccccn2c1CCC#N`, the Potency was inconclusive: 3.55 µM [inhibitor, full curve]. With `COc1ccc(NC(=O)c2cc(S(=O)(=O)N(Cc3ccccc3)c3ccccc3)ccc2Cl)cn1` the Potency was inconclusive: 17.7 µM [inhibitor, single point]. With `O=C1CS/C(=N\NC(=O)c2ccccc2)N1` the Potency was inconclusive: 6.29 µM [inhibitor, partial curve].

— PubChem BioAssay AID2451 (National Center for Advancing Translational Sciences (NCATS), 2010)
% is scaled to controls: 0 for no effect and ±100 for the full control effect; potency is read from the fitted curve at half-maximal effect; tags tell the direction and shape of the fitted curve.
Also: nearly all actives have a fitted effect of over 55% in size.
